Laboratory results published in patent US11407811B2, “Fusion protein, preparation method therefor and use thereof” (JIANGSU RONGTAI BIOTECH CO., LTD., priority 2017, dated 2022).

Experiments:
Format in all cases: cell-based
[1] = test system: colon cancer cells HCT-116; test: MTT assay, proliferation of colon cancer cell HCT-116
Description: (§1) The MTT assay was used to detect the inhibitory effect of the integrin blocker fusion protein obtained in Example 1 on the proliferation of various tumor cells, including melanoma cell B16F10, gastric cancer cell MGC-803, lung cancer cell A549, liver cancer cell Hep-G2, breast cancer cell MDA-MB-231, colon cancer cell HCT-116, human glioma U87, and cervical cancer cell Hela.
(§2) The tumor cells were cultured in a 5% CO2 incubator at 37° C. to a density of 90% or more, and collected by trypsinization. The cells were resuspended in the culture liquid and counted under a microscope. The cell concentration was adjusted to 3.0×10^4 cells/mL. The cell suspension was inoculated into a 96-well plate at 100 μL per well and cultured overnight in a 5% CO2 incubator at 37° C. […] After the cells were fully adhered, each dilution was added to a 96-well plate at 100 μL per well, respectively. […] 20 μL of 5 mg/mL MTT was added to each well of a 96-well plate, and incubation was continued for 4 hours. The medium was aspirated and 100 μL of DMSO per well were added to dissolve. The absorbance was measured at 570 nm with a microplate reader with a reference wavelength of 630 nm, and the proliferation inhibition (PI) was calculated. The formula is as follows: […]
(§3) where Ntest is the OD value of the test group and Ncontrol is the OD value of the blank control group.
(§4) The test was repeated 5 times independently. The results obtained from the test were calculated as mean±SD, and statistical t-test was performed. P<0.05 was considered as a significant difference, and P<0.01 was considered as an extremely significant difference.

[2] = test system: melanoma cell line B16F10; test: MTT assay, proliferation of melanoma cell B16F10
Description: as §1, §2, §3, §4

liver cancer cell Hep-G2 = test: MTT assay, proliferation of liver cancer cell Hep-G2
Description: as §1, §2, §3, §4

[3] = test system: human umbilical vein endothelial cells (HUVEC); test: Three-dimensional transwell assay, migration of HUVEC
Description: Human umbilical vein endothelial cells (HUVECs) were cultured with endothelial cell culture fluid containing 5% fetal bovine serum and 1×ECGS in a 5% CO2 incubator at 37° C., to a confluence of 90% or more, and then inhibitory effects of fusion protein I, protein II, protein III, protein IV, and protein V on migration of endothelial cells were detected by transwell assay, in which only endothelial cells HUVEC of passage 2 to 8 were used, and the specific operation was as follows.
(1) 10 mg/mL Matrigel was diluted with a DMEM medium at a ratio of 1:4, coated on a transwell chamber membrane, and air-dried at room temperature.
(2) HUVEC cells cultured to logarithmic phase were digested with 0.2% EDTA, collected, washed twice with PBS, followed by resuspended in an endothelial cell culture liquid containing 0.1% BSA, counted under a microscope, and the cell concentration was adjusted to 1×10^5 cells/mL;
(3) Test solutions for each group were formulated and diluted to 100 μL with a cell culture liquid containing 0.1% BSA;
Groups were divided as follows:
Blank control group: a cell culture liquid containing no drug;
Endostar group: 5 mg/mL Endostar solution diluted to a predetermined concentration with a cell culture liquid containing no drug; […]
(4) The cells were inoculated into a transwell chamber at 100 μL per well, and test solutions for each group were added to the chamber. To a 24-well plate, 0.6 mL of endothelial cell culture liquid containing 5% fetal bovine serum and 1×ECGS was added to stimulate cell migration, and incubated at 5% CO2 for 24 h at 37° C.
(5) The culture liquid in the well was discarded. The cells were fixed with 90% alcohol at room temperature for 30 min, stained with 0.1% crystal violet for 10 min at room temperature, and rinsed with water. Un-migrated cells in the upper layer were gently wiped off by a cotton swab. The observation was carried out under microscope and four fields of view were selected for taking photos and counting. The migration inhibition (MI) was calculated according to the formula: […]
where Ntest is the migration cell number in the test group, and Ncontrol is the migration cell number in the blank control group.
The test was repeated 3 times independently. The results obtained from the test were calculated as mean±SD, and statistical t-test was performed. P<0.05 was considered as a significant difference, and P<0.01 was considered as an extremely significant difference.

B1: Protein I: IgG1-Fc linked to antiangiogenesis polypeptide EDSM-Y via a flexible linker; SEQ ID NO: 15 (protein)
chain: [sequence of human IgG1 Fc not given]GGGGSGGGGSGGGGSFQPVLHLVALNSPLSGGMRGIRGADFQCFQQARAVGLAGTFRAGGGGRGD
A570 nm/A630 nm ([1]; dose 1 μg/mL): 0.8205 ± 0.0411
PI (%) ([1]; dose 1 μg/mL): 6.78%
A570 nm/A630 nm ([1]; dose 2 μg/mL): 0.7859 ± 0.0382
PI (%) ([1]; dose 2 μg/mL): 10.71%
A570 nm/A630 nm ([1]; dose 4 μg/mL): 0.7587 ± 0.0371
PI (%) ([1]; dose 4 μg/mL): 13.80%
A570 nm/A630 nm ([1]; dose 8 μg/mL): 0.7110 ± 0.0413
PI (%) ([1]; dose 8 μg/mL): 19.22%
A570 nm/A630 nm ([1]; dose 16 μg/mL): 0.6778 ± 0.0285
PI (%) ([1]; dose 16 μg/mL): 22.99%
A570 nm/A630 nm ([1]; dose 32 μg/mL): 0.6114 ± 0.0331
PI (%) ([1]; dose 32 μg/mL): 30.54%
A570 nm/A630 nm ([1]; dose 64 μg/mL): 0.5468 ± 0.0296
PI (%) ([1]; dose 64 μg/mL): 37.88%
A570 nm/A630 nm ([1]; dose 128 μg/mL): 0.4988 ± 0.0315
PI (%) ([1]; dose 128 μg/mL): 43.33%
A570 nm/A630 nm ([1]; dose 256 μg/mL): 0.4458 ± 0.0324
PI (%) ([1]; dose 256 μg/mL): 49.35%
A570 nm/A630 nm ([2]; dose 1 μg/mL): 1.0974 ± 0.0157
PI (%) ([2]; dose 1 μg/mL): 12.47%
A570 nm/A630 nm ([2]; dose 2 μg/mL): 1.0013 ± 0.0781
PI (%) ([2]; dose 2 μg/mL): 20.13%
A570 nm/A630 nm ([2]; dose 4 μg/mL): 0.8603 ± 0.0640
PI (%) ([2]; dose 4 μg/mL): 31.38%
A570 nm/A630 nm ([2]; dose 8 μg/mL): 0.6959 ± 0.0419
PI (%) ([2]; dose 8 μg/mL): 44.49%
A570 nm/A630 nm ([2]; dose 16 μg/mL): 0.5221 ± 0.0778
PI (%) ([2]; dose 16 μg/mL): 58.36%
A570 nm/A630 nm ([2]; dose 32 μg/mL): 0.4330 ± 0.0579
PI (%) ([2]; dose 32 μg/mL): 65.46%
A570 nm/A630 nm ([2]; dose 64 μg/mL): 0.3029 ± 0.0286
PI (%) ([2]; dose 64 μg/mL): 75.84%
A570 nm/A630 nm ([2]; dose 128 μg/mL): 0.1942 ± 0.0450
PI (%) ([2]; dose 128 μg/mL): 84.51%
A570 nm/A630 nm ([2]; dose 256 μg/mL): 0.0817 ± 0.0301
PI (%) ([2]; dose 256 μg/mL): 93.48%
A570 nm/A630 nm (liver cancer cell Hep-G2; dose 1 μg/mL): 0.6669 ± 0.0428
PI (%) (liver cancer cell Hep-G2; dose 1 μg/mL): 2.61%
A570 nm/A630 nm (liver cancer cell Hep-G2; dose 2 μg/mL): 0.6009 ± 0.0362
PI (%) (liver cancer cell Hep-G2; dose 2 μg/mL): 12.25%
A570 nm/A630 nm (liver cancer cell Hep-G2; dose 4 μg/mL): 0.5879 ± 0.0404
PI (%) (liver cancer cell Hep-G2; dose 4 μg/mL): 14.15%
A570 nm/A630 nm (liver cancer cell Hep-G2; dose 8 μg/mL): 0.5555 ± 0.0373
PI (%) (liver cancer cell Hep-G2; dose 8 μg/mL): 18.88%
A570 nm/A630 nm (liver cancer cell Hep-G2; dose 16 μg/mL): 0.5220 ± 0.0259
PI (%) (liver cancer cell Hep-G2; dose 16 μg/mL): 23.77%
A570 nm/A630 nm (liver cancer cell Hep-G2; dose 32 μg/mL): 0.4862 ± 0.0330
PI (%) (liver cancer cell Hep-G2; dose 32 μg/mL): 29.00%
A570 nm/A630 nm (liver cancer cell Hep-G2; dose 64 μg/mL): 0.4397 ± 0.0327
PI (%) (liver cancer cell Hep-G2; dose 64 μg/mL): 35.79%
A570 nm/A630 nm (liver cancer cell Hep-G2; dose 128 μg/mL): 0.3836 ± 0.0218
PI (%) (liver cancer cell Hep-G2; dose 128 μg/mL): 43.98%
A570 nm/A630 nm (liver cancer cell Hep-G2; dose 256 μg/mL): 0.3223 ± 0.0233
PI (%) (liver cancer cell Hep-G2; dose 256 μg/mL): 52.94%
inhibitory effect on liver cancer cell Hep-G2 (liver cancer cell Hep-G2; in words): a certain inhibitory effect
MI (%) ([3]; dose 0.25 μg/mL): 19.18%
Migration cell number ([3]; dose 0.25 μg/mL): 2031.0 ± 184.39
MI (%) ([3]; dose 0.5 μg/mL): 30.42%
Migration cell number ([3]; dose 0.5 μg/mL): 1748.5 ± 361.22
MI (%) ([3]; dose 1 μg/mL): 63.27%
Migration cell number ([3]; dose 1 μg/mL): 923.0 ± 153.98
MI (%) ([3]; dose 2 μg/mL): 70.43%
Migration cell number ([3]; dose 2 μg/mL): 743.0 ± 233.57
MI (%) ([3]; dose 4 μg/mL): 68.36%
Migration cell number ([3]; dose 4 μg/mL): 795.0 ± 45.32**^
MI (%) ([3]; dose 8 μg/mL): 44.41%
Migration cell number ([3]; dose 8 μg/mL): 1397.0 ± 176.19

Marks after values point to notes of the source that are not given here.
